Test results reported in US10294303B2, “Method of treating or ameliorating metabolic disorders using binding proteins for gastric inhibitory peptide receptor (GIPR) in combination with GLP-1 agonists” (AMGEN INC., priority 2015, dated 2019).

B1: 5C2.015: anti-GIPR antibody, 5C2 family (antibody)
heavy: QVQLVQSGAEVKKPGASVKVSCKASGYTFTGYYIHWVRQAPGQGLEWMGWINPDAGGTDYSQRFQGRVTMTRDTSISTAYMELNSLRSDDTAVYYCAREATIFGMVIVPFDYWGQGTLVTVSSASTKGPSVFPLAPSSKSTSGGTAALGCLVKDYFPEPVTVSWNSGALTSGVHTFPAVLQSSGLYSLSSVVTVPSSSLGTQTYICNVNHKPSNTKVDKKV[human IgG1 Fc with R292C N297G V302C (EU numbers) not written out]
light: DIVMTQSPDSLAVSLGERATINCKSSQSVLSSSNNKNYIAWYQQKPGQPPKLLIYWASTRESGVPDRFSGSGSGTDFTLTISSLQAEDVAVFYCQQYYSTPWTFGQGTKVEIKRTVAAPSVFIFPPSDEQLKSGTASVVCLLNNFYPREAKVQWKVDNALQSGNSQESVTEQDSKDSTYSLSSTLTLSKADYEKHKVYACEVTHQGLSSPVTKSFNRGEC
B2: 5C2.016: anti-GIPR antibody, 5C2 family (antibody)
heavy: QVQLVQSGAEVKKPGASVKVSCKASGYTFTGYYIHWVRQAPGQGLEWMGWINPESGGTDYSQRFQGRVTMTRDTSISTAYMELNSLRSDDTAVYYCAREATIFGMVIVPFDYWGQGTLVTVSSASTKGPSVFPLAPSSKSTSGGTAALGCLVKDYFPEPVTVSWNSGALTSGVHTFPAVLQSSGLYSLSSVVTVPSSSLGTQTYICNVNHKPSNTKVDKKV[human IgG1 Fc with R292C N297G V302C (EU numbers) not written out]
light: DIVMTQSPDSLAVSLGERATINCKSSQSVLSSSNNKNYIAWYQQKPGQPPKLLIYWASTRESGVPDRFSGSGSGTDFTLTISSLQAEDVAVFYCQQYYSTPWTFGQGTKVEIKRTVAAPSVFIFPPSDEQLKSGTASVVCLLNNFYPREAKVQWKVDNALQSGNSQESVTEQDSKDSTYSLSSTLTLSKADYEKHKVYACEVTHQGLSSPVTKSFNRGEC
B3: 11C1.009: anti-GIPR antibody, 11C1 family (antibody)
heavy: QVQLVQSGAEVKKPGASVKVSCKASGYTFTGYYIHWVRQAPGQGLEWMGWISPNSGETSYAQKFQDRVTMTRDTSISTAYMELSSLRSDDTAVYFCAREATIFGMLIVPFDYWGQGTLVTVSSASTKGPSVFPLAPSSKSTSGGTAALGCLVKDYFPEPVTVSWNSGALTSGVHTFPAVLQSSGLYSLSSVVTVPSSSLGTQTYICNVNHKPSNTKVDKKV[human IgG1 Fc with R292C N297G V302C (EU numbers) not written out]
light: DIVMTQSPDSLAVSLGERATINCKSSQSVLSSSNNKNYLAWYQQKPGQPPKLLIYWTSTRESGVPDRFSGSGSGTDFTLTINSLQAEDVAVYYCQQYYRTPWTFGQGTKVEIKRTVAAPSVFIFPPSDEQLKSGTASVVCLLNNFYPREAKVQWKVDNALQSGNSQESVTEQDSKDSTYSLSSTLTLSKADYEKHKVYACEVTHQGLSSPVTKSFNRGEC
B4: 11C1.010: anti-GIPR antibody, 11C1 family (antibody)
heavy: QVQLVQSGAEVKKPGASVKVSCKASGYTFTGYYIHWVRQAPGQGLEWMGWISPNSGETSYAQKFQDRVTMTRDTSISTAYMELSRLRSDDTAVYFCAREATIFGMLIVPFDYWGQGTLVTVSSASTKGPSVFPLAPSSKSTSGGTAALGCLVKDYFPEPVTVSWNSGALTSGVHTFPAVLQSSGLYSLSSVVTVPSSSLGTQTYICNVNHKPSNTKVDKKV[human IgG1 Fc with R292C N297G V302C (EU numbers) not written out]
light: DIVMTQSPDSLSVSLGERATINCKSSQSVLSSSNNKNYLAWYQQKPGQPPNLLIYWTSTRESGVPDRFSGSGSGTDFTLTINSLQAEDVAVYYCQQYYRTPWTFGQGTKVEIKRTVAAPSVFIFPPSDEQLKSGTASVVCLLNNFYPREAKVQWKVDNALQSGNSQESVTEQDSKDSTYSLSSTLTLSKADYEKHKVYACEVTHQGLSSPVTKSFNRGEC
B5: 13H12.005: anti-GIPR antibody, 13H12 family (antibody)
heavy: QVQLVQSGAEVKKPGASVKVSCKASGYTFTGYYIHWVRQAPGQGLEWMGWINPESGGTDYSQRFQGRVTMTRDTSISTAYMELSSLRSDDTAVYYCAREATIFGMVIVPFDYWGQGTLVTVSSASTKGPSVFPLAPSSKSTSGGTAALGCLVKDYFPEPVTVSWNSGALTSGVHTFPAVLQSSGLYSLSSVVTVPSSSLGTQTYICNVNHKPSNTKVDKKV[human IgG1 Fc with R292C N297G V302C (EU numbers) not written out]
light: DIVMTQSPDSLAVSLGERATINCKSSQSVLSSSNNKNYIAWYQQKPGQPPKLLIYWASTRESGVPDRFSGSGSGTDFTLTISSLQAEDVAVFYCQQYYSTPWTFGQGTKVEIKRTVAAPSVFIFPPSDEQLKSGTASVVCLLNNFYPREAKVQWKVDNALQSGNSQESVTEQDSKDSTYSLSSTLTLSKADYEKHKVYACEVTHQGLSSPVTKSFNRGEC
B6: 12H11.004: anti-GIPR antibody, 12H11 family (antibody)
heavy: QVPLVQSGAEVKKPGASVKVSCKASGYTFTGYYIHWVRQAPGQGLEWMGWISPNQGETNYAQKFQDRVTMTRDTSISTAYMELSRLRSDDTAVYYCTREATIFGMLIVPFDYWGQGTLVTVSSASTKGPSVFPLAPSSKSTSGGTAALGCLVKDYFPEPVTVSWNSGALTSGVHTFPAVLQSSGLYSLSSVVTVPSSSLGTQTYICNVNHKPSNTKVDKKV[human IgG1 Fc with R292C N297G V302C (EU numbers) not written out]
light: DIVMTQSPDSLSVSLGERATINCKSSQSVLSSSNNKNYLAWYQQKPGQPPNLLIYWTSTRDSGVPDRFSGSGSGTDFTLTINSLQAEDVAVYYCQQYYRTPWTFGQGTKVEIKRTVAAPSVFIFPPSDEQLKSGTASVVCLLNNFYPREAKVQWKVDNALQSGNSQESVTEQDSKDSTYSLSSTLTLSKADYEKHKVYACEVTHQGLSSPVTKSFNRGEC
B7: 12H11.013: anti-GIPR antibody, 12H11 family (antibody)
heavy: QVQLVQSGAEVKKPGASVKVSCKASGYTFTGYYIHWVRQAPGQGLEWMGWISPNQGETNYAQKFQDRVTMTRDTSISTAYMELSSLRSDDTAVYYCAREATIFGMLIVPFDYWGQGTLVTVSSASTKGPSVFPLAPSSKSTSGGTAALGCLVKDYFPEPVTVSWNSGALTSGVHTFPAVLQSSGLYSLSSVVTVPSSSLGTQTYICNVNHKPSNTKVDKKV[human IgG1 Fc with R292C N297G V302C (EU numbers) not written out]
light: DIVMTQSPDSLAVSLGERATINCKSSQSVLSSSNNKNYLAWYQQKPGQPPKLLIYWTSTRDSGVPDRFSGSGSGTDFTLTINSLQAEDVAVYYCQQYYRTPWTFGQGTKVEIKRTVAAPSVFIFPPSDEQLKSGTASVVCLLNNFYPREAKVQWKVDNALQSGNSQESVTEQDSKDSTYSLSSTLTLSKADYEKHKVYACEVTHQGLSSPVTKSFNRGEC
B8: 12H11.014: anti-GIPR antibody, 12H11 family (antibody)
heavy: QVQLVQSGAEVKKPGASVKVSCKASGYTFTGYYIHWVRQAPGQGLEWMGWISPNQGETNYAQKFQDRVTMTRDTSISTAYMELSSLRSDDTAVYYCAREATIFGMLIVPFDYWGQGTLVTVSSASTKGPSVFPLAPSSKSTSGGTAALGCLVKDYFPEPVTVSWNSGALTSGVHTFPAVLQSSGLYSLSSVVTVPSSSLGTQTYICNVNHKPSNTKVDKKV[human IgG1 Fc with R292C N297G V302C (EU numbers) not written out]
light: DIVMTQSPDSLAVSLGERATINCKSSQSVLSSSNNKNYLAWYQQKPGQPPKLLIYWTSTRESGVPDRFSGSGSGTDFTLTINSLQAEDVAVYYCQQYYRTPWTFGQGTKVEIKRTVAAPSVFIFPPSDEQLKSGTASVVCLLNNFYPREAKVQWKVDNALQSGNSQESVTEQDSKDSTYSLSSTLTLSKADYEKHKVYACEVTHQGLSSPVTKSFNRGEC

The molecules below were run against T1, Rhesus GIPR (Macaca mulatta, UniProt F7E1R9) (assay: Rhesus GIPR cAMP assay).
T1 construct: expressed in transfected cells
T1 sequence (F7E1R9 26-466): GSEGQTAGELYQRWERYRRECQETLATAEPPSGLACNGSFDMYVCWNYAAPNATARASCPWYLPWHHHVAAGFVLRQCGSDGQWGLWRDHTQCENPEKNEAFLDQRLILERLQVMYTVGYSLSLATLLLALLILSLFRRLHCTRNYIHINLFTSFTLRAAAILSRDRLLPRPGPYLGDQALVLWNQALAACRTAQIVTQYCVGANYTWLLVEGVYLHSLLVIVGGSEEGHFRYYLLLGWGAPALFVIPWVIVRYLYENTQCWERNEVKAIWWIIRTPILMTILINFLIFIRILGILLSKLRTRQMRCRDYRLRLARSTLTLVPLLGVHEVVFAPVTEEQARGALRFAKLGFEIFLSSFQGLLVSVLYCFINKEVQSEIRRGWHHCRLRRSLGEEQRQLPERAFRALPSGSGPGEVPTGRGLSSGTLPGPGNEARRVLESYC
Type: cell-based
Method: A cyclic AMP assay (no. 62AM4PEC CISBIO) was used to determine the potency of anti-GIPR antibodies. 293T cells were grown in suspension and transiently transfected with human GIPR using Lipofectamine 2000 (no. 11668027 Life Technologies). 24 hrs after transfection, antibody was titrated from high to low concentration in black 384 well plates (no. 3712 Corning Life Sciences) with a final volume of 10 uls/well in assay buffer (DMEM no. D5671 Sigma supplemented with 15 mM HEPES and 0.1% Bovine Serum Albumin). GIPR transfected cells were then added to the assay plate at 10,000 cells per well (10 uls/well) in the presence of 1:40 cAMP-d2 (CISBIO kit component). Assay plates were allowed to incubate for 30 minutes at 37′ C., 5% CO2. […] Plates were then incubated at 37° C., 5% CO2 for 30 minutes. Anti-cAMP-Eu3+-Cryptate (CISBIO kit component) was prepared at 1:40 in conjugate and lysis buffer (CISBIO kit component) and 15 uls/well of this solution was added to the assay plates and allowed to incubate for 1 hour at room temperature. Homogeneous time-resolved fluorescence was then collected on a Tecan Genios Pro multimode microplate reader using an excitation wavelength of 320 nm, a lag time of 150 is and an integration time of 50 us. […] Collected data was then reported as a FRET ratio of A665/A620 multiplied by a factor of 10000 as per CISBIO kit insert instructions. Percent inhibition of hGIP binding to transiently expressed GIPR was calculated by subtracting FRET ratio of cells plus hGIP (f1) from FRET ratio of cells plus antibody plus hGIP (f2) divided by FRET ratio of cells plus hGIP (f1) subtracted from FRET ratio of cells alone (f3) multiplied by 100: % Inhibition=[(f2−f1)/(f3−f1)]×100.

Rhesus GIPR cAMP Assay (Conc. mAb @ 60% Inhibition in nM), >[Ab] Tested:
B1, B2, B3, B4, B5, B6, B7, B8
